Source: PubChem BioAssay AID1030 (National Center for Advancing Translational Sciences (NCATS), 2008)
Out of some 220,000 compounds screened, about 16,000 (7.3%) were called active. The inconclusive results got no clear call from the source; some entries with a clear call stand among them for comparison. Calls follow the shape of the dose curve; as a rule, active = well fitted inhibition curve with a large enough effect (not every such curve was filed as active); inconclusive = small, poorly fitted or top-dose-only effect, or another doubt; inactive = no such curve, though single readings can be large or run the other way. Potencies of inconclusive entries are doubtful fits and often do not repeat.

Each molecule was assayed against Aldehyde dehydrogenase 1A1 (Homo sapiens) (UniProt P00352) (assay: qHTS Assay for Inhibitors of Aldehyde Dehydrogenase 1 (ALDH1A1)). Conditions: Purified ALDH1A1, NADH fluorescence, propionaldehyde substrate; series mostly up to 75.3 µM; activity, negative = inhibition: at the top concentration.
Sequence of UniProt P00352 (P00352 whole entry, looked up): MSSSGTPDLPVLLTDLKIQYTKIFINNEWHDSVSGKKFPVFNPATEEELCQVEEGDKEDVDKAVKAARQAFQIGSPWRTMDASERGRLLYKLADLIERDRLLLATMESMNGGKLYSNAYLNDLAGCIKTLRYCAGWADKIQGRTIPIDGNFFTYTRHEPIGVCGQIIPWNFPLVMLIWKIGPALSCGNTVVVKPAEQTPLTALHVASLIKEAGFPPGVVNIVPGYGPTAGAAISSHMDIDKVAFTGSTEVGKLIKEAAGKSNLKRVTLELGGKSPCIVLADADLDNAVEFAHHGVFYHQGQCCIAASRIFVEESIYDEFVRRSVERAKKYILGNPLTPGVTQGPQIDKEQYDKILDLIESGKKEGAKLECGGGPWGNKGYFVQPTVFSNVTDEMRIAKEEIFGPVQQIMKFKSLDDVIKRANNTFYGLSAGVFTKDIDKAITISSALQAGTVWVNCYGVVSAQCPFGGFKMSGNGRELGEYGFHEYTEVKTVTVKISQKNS

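For activity, negative = inhibition in this document: plate controls were no enzyme wells and a reference inhibitor.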
Potency is read from the fitted curve at half-maximal effect; tags tell the direction and shape of the fitted curve.

Potency, inactive:
O=C(O)Cc1csc(-c2cccc(Oc3ccccc3)c2)n1

Potency, inconclusive:
COc1ccc(-c2nnc(SC)o2)c(OC)c1 35.5 µM [inhibitor, single point]
CCOC(=O)C1=C(C)NC(SC)=NC1c1ccc(OC)cc1 (stereo not drawn) 39.8 µM [inhibitor, single point]
COc1ccc(CNC(=O)CN(C2CCCCC2)S(C)(=O)=O)cc1 39.8 µM [inhibitor, single point]
COc1ccccc1-n1c(C)nnc1SCC(=O)Nc1cc(C)cc(C)c1 2.51 µM [inhibitor, full curve, poor fit]
Cn1nc(C(F)(F)F)c(C#N)c1N1CCN(c2ccccc2)CC1 22.4 µM [inhibitor, partial curve]
COc1cccc(Oc2nnnn2-c2ccccc2)c1 35.5 µM [inhibitor, single point]
O=C1C(c2ccc(F)cc2)N(Cc2ccc3c(c2)OCO3)C(=O)CN1C1CCCC1 (stereo not drawn) 28.2 µM [inhibitor, single point]
O=C(CCS(=O)(=O)c1ccc(Cl)cc1)N1CCN(S(=O)(=O)c2cccs2)CC1 39.8 µM [inhibitor, single point]
O=C(NCCSCc1ccco1)Nc1ccc(Cl)cc1 15.8 µM [inhibitor, partial curve]
COc1cccc(C(=O)N2CCN(C(=O)c3ccc(-c4ccccc4)cc3)CC2)c1OC 35.5 µM [inhibitor, single point]
O=C(CS(=O)(=O)c1cn(Cc2ccccc2Cl)c2ccccc12)N1CCOCC1 39.8 µM [inhibitor, single point]
COc1ccc(-c2nnc3sc(-c4ccco4)nn23)cc1OC 28.2 µM [inhibitor, single point]
CCOC(=O)CSc1nn(C)c(=S)s1 31.6 µM [inhibitor, single point]
CCOC(=O)N1CCN(C(=O)COc2ccc(Br)cc2Cl)CC1 28.2 µM [inhibitor, single point]
O=C(Nc1ccc(Cl)cc1)c1csc(Cc2ccccc2)n1 39.8 µM [inhibitor, single point]
CC(=O)N1c2ccc(Cl)cc2C2C=CCC2C1c1cccc2ccccc12 (stereo not drawn) 35.5 µM [inhibitor, single point]
CCC(C)(C)OC 39.8 µM [inhibitor, single point]
O=C(c1cc2ccccc2o1)N1CCCCCC1 28.2 µM [inhibitor, single point]
CCOC(=O)c1c(C)nc(-c2ccccc2)nc1NC(C)=O 44.7 µM [inhibitor, single point]
CC(C)(C)c1ccccc1OCCCCCNCCO 28.2 µM [inhibitor, single point]
COC(=O)c1c(NC(=O)CN2CCC3(O)CCCCC3C2c2cc(OC)ccc2OC)sc(C)c1C (stereo not drawn) 28.2 µM [inhibitor, partial curve]
Cc1cc(-c2nnc(CCC(=O)N3CCN(Cc4cccnc4)CC3)o2)c(C)o1 14.1 µM [inhibitor, partial curve]
CC(=O)C(C)Oc1ccc2c3c(c(=O)oc2c1)CCCCC3 (stereo not drawn) 28.2 µM [inhibitor, partial curve]
CCS(=O)(=O)Nc1cc(-c2nc3cccnc3s2)ccc1C 31.6 µM [inhibitor, partial curve]
Cc1ccc(C)c(Cn2nnc3c(=O)[nH]c(C4CCCN(C(=O)C5CCC5)C4)nc32)c1 (stereo not drawn) 31.6 µM [inhibitor, single point]
Cc1ccccc1CN1CCNC(=O)C1CC(=O)O (stereo not drawn) 39.8 µM [inhibitor, single point]
CCOC(=O)C1(CCCc2ccccc2)CCN(C(=O)CCCn2cncn2)CC1 20 µM [inhibitor, partial curve]
O=C(CSCC(=O)c1ccccc1)Nc1ccccc1Cl 39.8 µM [inhibitor, single point]
Fc1ccc(C(c2nnnn2C2CCCC2)N2CCN(Cc3ccccc3)CC2)cc1 (stereo not drawn) 39.8 µM [inhibitor, single point]
COc1ccc(-c2nc3cnc(OC)nc3n(Cc3cccs3)c2=O)cc1 14.1 µM [inhibitor, partial curve]
Cc1cc(C)c(NC(=O)c2ccc(CNS(=O)(=O)c3cc(C(F)(F)F)ccc3Cl)cc2)c(C)c1 39.8 µM [inhibitor, single point]
CSc1nc2ccc(NC(=O)C3CC(=O)N(Cc4ccco4)C3)cc2s1 (stereo not drawn) 31.6 µM [inhibitor, single point]
Cc1cccc(Nc2nnc(SCC(=O)Nc3cccc(S(=O)(=O)N4CCCCC4)c3)s2)c1 25.1 µM [inhibitor, single point]
CCOC(=O)c1c(-c2ccc(-c3ccccc3)cc2)csc1NC(=O)CCN1CCOCC1 39.8 µM [inhibitor, single point]
CCN1CCN(C(=O)c2cn(CCOC)c(=O)c3c2c2ccccc2n3C)CC1 28.2 µM [inhibitor, partial curve]
CCOc1nc2ccccc2cc1/C=C/C(=O)O 25.1 µM [inhibitor, partial curve]
COCCN1C(=O)/C(=C/c2ccc(N3CCCC3)cc2C)SC1=S 3.55 µM [inhibitor, full curve]
O=C(NCc1ccccc1)C12CN(Cc3ccccc3)CC1C(c1cccc([N+](=O)[O-])c1)=NO2 (stereo not drawn) 44.7 µM [inhibitor, single point]
COC/C=C/C1=CC2=CC(=O)C(C)(OC(=O)c3cnc4ccccc4n3)C(=O)C2=CN1Cc1ccc2c(c1)OCO2 (stereo not drawn) 3.55 µM [inhibitor, partial curve]
O=C(Nc1ccc2c(c1)nc1n2CCN(Cc2ccccc2)C1)c1cccs1 25.1 µM [inhibitor, partial curve]
C#CC[N+]1(CC#Cc2ccc(C#CC[N+]3(CC#C)CCOCC3)cc2)CCOCC1 39.8 µM [inhibitor, single point]
Cc1ccccc1NCC(=O)N/N=C/C(Br)=C/c1ccccc1 28.2 µM [inhibitor, single point]
Cc1cccc(CSc2ccc3nnc(-c4ccccn4)n3n2)c1 35.5 µM [inhibitor, single point]

Potency, active:
COCCSc1ncnc2c1oc1nc3c(cc12)COC(C)(C)C3 6.31 µM
N#Cc1cc2c([nH]c1=S)CCCCCC2 10 µM
O=c1cnc2cncnc2n1Cc1ccc(F)cc1 10 µM
COc1ccc(N2C(=O)CC(n3c(CCCCO)nc4ccccc43)C2=O)cc1 (stereo not drawn) 3.55 µM
CCCN1C(=O)C(Cc2nc3ccccc3c(=O)n2C)c2ccccc21 (stereo not drawn) 0.282 µM
CCN(CC)S(=O)(=O)c1cccc(-c2nnc(-c3ccc(C)cc3)o2)c1 11.2 µM
CCCCN1C(C)=CC(=C2C(=O)c3ccccc3C2=O)C=C1C 14.1 µM
Nc1c(C(=O)Nc2ccc(F)cc2)sc(=S)n1-c1ccccc1F 12.6 µM
COCC1CCN(Cc2nc(-c3cccs3)no2)C1 (stereo not drawn) 28.2 µM
C/C=C/C=C/C=O 25.1 µM
Cc1cc(OCC(=O)NC(C)c2ccccc2)ccc1[N+](=O)[O-] (stereo not drawn) 25.1 µM
CC1=NOC(=O)/C1=C\c1ccc(-c2cc(Cl)ccc2Cl)o1 3.55 µM
COc1ccc(C)cc1-n1nnnc1SCC(=O)c1cc(C)n(Cc2ccco2)c1C 15.8 µM
O=C(CSc1nc2ccccc2s1)Nc1ccc2c(c1)oc1ccccc12 25.1 µM
O=C1CN(C(=O)c2ccc(Br)o2)C(c2ccc(F)cc2)c2cc(Cl)ccc2N1 (stereo not drawn) 22.4 µM
CC1=C(CC/C(C)=N/NC(N)=S)C(C)(C)CCC1 28.2 µM

activity, negative = inhibition, inactive:
Cc1c(/C=N/NC(=O)c2ccc(O)cc2)c2ccccn2c1C(=O)c1ccc(F)cc1 0.115%
C/C=C(\C)C(=O)OC1[C@@H]2C=C3C4CC(=O)OC(c5ccoc5)[C@]4(C)CCC3[C@@](C)(C2=O)C(C(O)C(=O)OC)C1(C)C (stereo partly drawn) -5.19%
CO/N=C/c1ccc(Sc2ccc(C)cc2)c([N+](=O)[O-])c1 -5.82%
O=c1c2oc3ccccc3c2[nH]c(=S)n1-c1ccc(F)cc1 -6.27%
COc1cc(CNCCc2ccc(F)cc2)ccc1OCc1ccc(Cl)nc1 3.58%
CCOC(=O)c1nc(-c2ccc(OC)c(OC)c2)cnc1C#N 1.4%
CCN1CCN(CCn2c(=S)[nH]c3cc4c(cc3c2=O)OCO4)CC1 5.5%
CCOC(=O)C1CCCN(C(=O)Cc2ccc(C)cc2)C1 (stereo not drawn) -1.81%
CN(C)/C=C/C(=O)c1ccc(Cl)cc1Cl -3.57%
Cc1ccccc1NS(=O)(=O)c1cc(C(=O)NCc2ccco2)ccc1C 3.96%
COc1cc(N/N=C(\C)c2ccc(O)c(C)c2)nc(-c2ccccc2)n1 -17.2%
O=[N+]([O-])c1ccc(NCc2ccc3c(c2)OCO3)cc1 3.25%
CCO[C@H]1OC(C(=O)N2CCCCCCC2)=C[C@@H](c2coc3ccccc3c2=O)[C@@H]1CCCO 8.32%
